Source: the supplement of paper PMC12217912
Some of the results follow. The full chains were built here from the parent and the listed change. Values near 0.05 are background.

B1: TEV protease; numbered along this chain (parent)
chain: MGESLFKGPRDYNPISSSICHLTNESDGHTTSLYGIGFGPFIITNKHLFRRNNGTLVVQSLHGVFKVKDTTTLQQHLVDGRDMIIIRMPKDFPPFPQKLKFREPQREERICLVTTNFQTKSMSSMVSDTSCTFPSGDGIFWKHWIQTKDGQCGSPLVSTRDGFIVGIHSASNFTNTNNYFTSVPKNFMELLTNQEAQQWVSGWRLNADSVLWGGHKVFMVKPEEPFQPVKEATQL

Variants of: B1
Experiment: raw area under fraction-flipped curve 0-4 h after induction (AUC4h, not background-subtracted), DNA-recorder readout of cleavage of the substrate (dimensionless); higher = more cleavage of the substrate by the protease variant
Details: temperature: 34 °C; time window: 0-4 h after rhamnose induction
Protocol: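 In vivo DNA recorder in E. coli TOP10(DE3) ΔrhaA at 34 °C. Each TEVp single-site mutant (parent TEVp 0) is paired with a single-site variant of the 7-mer TEVs (canonical ENLYFQ|S). The substrate sits between flexible linkers in a Bxb1-sfGFP-TEVs-SsrA fusion, so cleavage stabilises Bxb1 and speeds flipping of a recombination array, read by NGS. The value is the raw area under the fraction-flipped curve over 0-4 h after rhamnose induction (AUC4h), with ≥20 reads per time point. It is not background-subtracted; inactive controls average about 0.047.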
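Also: Bxb1 expression induced with 0.2% (w/v) L-rhamnose at OD600 near 0.5, cultures sampled hourly, flipped fraction per protease–substrate barcode pair counted by paired-end Illumina sequencing.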

Variant	area with substrate ENLYAQS	area with substrate ENLYCQS	area with substrate ENLYDQS	area with substrate ENLYEQS	area with substrate ENLYGQS	area with substrate ENLYHQS	area with substrate ENLYIQS	area with substrate ENLYKQS	area with substrate ENLYMQS	area with substrate ENLYNQS	area with substrate ENLYPQS	area with substrate ENLYQQS	area with substrate ENLYRQS	area with substrate ENLYSQS	area with substrate ENLYTQS	area with substrate ENLYVQS	area with substrate ENLYLQS	area with substrate ENLYWQS	area with substrate ENLYYQS
MGESLFKGPRDYNPISSSICHLTNESDGHTTSLYGIGFGPFIITNKHLFRRNNGTLVVQSLHGVFKVKDTTTLQQHLVDGRDMIIIRMPKDFPPFPQKLKFREPQREERICLVTTNFQTKSMSSMVSDTSCTFPSGDGIFWKHWIQTKDGQCGSPLVSTRDGFIVGIYSASNFTNTNNYFTSVPKNFMELLTNQEAQQWVSGWRLNADSVLWGGHKVFMVKPEEPFQPVKEATQL [H168Y]	0.0669	0.0651	0.0469	0.0602	0.0562	0.0596	0.0462	0.0545	0.0608	0.0621	0.0483	0.0699	0.0605	0.0572	0.0435	0.0594	–	–	–
MGESLFKGPRDYNPISSSICHLTNESDGHTTSLYGIGFGPFIITNKHLFRRNNGTLVVQSLHGVFKVKDTTTLQQHLVDGRDMIIIRMPKDFPPFPQKLKFREPQREERICLVTTNFQTKSMSSMVSDTSCTFPSGDGIFWKHYIQTKDGQCGSPLVSTRDGFIVGIHSASNFTNTNNYFTSVPKNFMELLTNQEAQQWVSGWRLNADSVLWGGHKVFMVKPEEPFQPVKEATQL [W144Y]	0.0714	0.0699	0.0735	0.0666	0.0696	0.0616	0.102	0.079	0.0828	0.073	0.0843	–	0.0654	0.0561	–	0.0786	0.0607	0.0805	–
MGESLFKGPRDYNPISSSICHLTNESDGHTTSLYGIGFGPFIITNKHLFRRNNGTLVVQSLHGVFKVKDTTTLQQHLVDGRDMIIIRMPKDFPPFPQKLKFREPQREERICLVTTNFQTKSMSSMVSDTSCTFPSGDGIFWKHWIQTKDGQCGSPLVSTRDGFIVGIHSASNFTNTNNYFTSVPKNFMELLTNQEAQQWVSGWRLNANSVLWGGHKVFMVKPEEPFQPVKEATQL [D208N]	0.0796	–	0.0664	0.0787	0.0564	–	0.106	0.0595	0.074	–	0.0742	–	–	0.0701	–	–	–	–	0.0522
MGESLFKGPRDYNPISSSICHLTNESDGHTTSLYGIGFGPFIITNKHLFRRNNGTLVVQSLHGVFKVKDTTTLQQHLVDGRDMIIIRMPKDFPPFPQKLKFREPQREERICLVTTNFQTKSMSSMVSDTSCTFPSGDGIFWKHWIQTKDWQCGSPLVSTRDGFIVGIHSASNFTNTNNYFTSVPKNFMELLTNQEAQQWVSGWRLNADSVLWGGHKVFMVKPEEPFQPVKEATQL [G150W]	0.06	0.0598	0.0602	0.0576	0.0666	0.0608	0.0385	0.0586	0.0525	0.0615	0.0519	0.0691	0.0667	0.0676	0.0623	0.0583	–	0.0588	0.0499
MGESLFKGPRDYNPISSSICHLTNESDGHTTSLYGIGFGPFIITNKHLFRRNNGTLVVQSLHGVFKVKDTTTLQQHLVDGRDMIIIRMPKDFPPFPQKLKFREPQREERICLVTTNFQTKSMSSMVSDTSCTFPSGDGIFWKHWIQTKDGQCGSPLVSTRDGFIEGIHSASNFTNTNNYFTSVPKNFMELLTNQEAQQWVSGWRLNADSVLWGGHKVFMVKPEEPFQPVKEATQL [V165E]	0.05	0.0512	0.0591	0.0539	0.0518	0.0546	0.0536	0.055	0.0476	0.0475	0.066	–	0.0491	0.0553	0.0542	0.0488	–	0.0426	0.0542
MGESLFKGPRDYNPISSSICPLTNESDGHTTSLYGIGFGPFIITNKHLFRRNNGTLVVQSLHGVFKVKDTTTLQQHLVDGRDMIIIRMPKDFPPFPQKLKFREPQREERICLVTTNFQTKSMSSMVSDTSCTFPSGDGIFWKHWIQTKDGQCGSPLVSTRDGFIVGIHSASNFTNTNNYFTSVPKNFMELLTNQEAQQWVSGWRLNADSVLWGGHKVFMVKPEEPFQPVKEATQL [H21P]	0.0576	–	0.0356	0.046	0.0541	0.0502	0.0593	0.0566	0.0425	0.0525	0.052	0.0566	0.0545	0.0615	0.0459	0.0573	0.0481	0.0331	–
MGESLFKGPRDYNPISSSICHLTNESDGHTTSLYGIGFGPFIITNKHLFRRNNGTLVVQSLHGVFKVKDTTTLQQHLVDGRDMIIIRMPKDFPPFPQKLKFREPQREERICLVTTNFQTKSMSSMVSDTSCTFPSGDGIFWKHWIQTKMGQCGSPLVSTRDGFIVGIHSASNFTNTNNYFTSVPKNFMELLTNQEAQQWVSGWRLNADSVLWGGHKVFMVKPEEPFQPVKEATQL [D149M]	0.0512	0.0798	0.0591	0.0514	0.0561	0.0564	0.0985	0.078	0.0719	0.0584	0.0619	–	0.0628	0.0672	–	0.0983	–	0.0795	–
MGESLFKGPRDYNPISSSICHLTNESDGHTTSLYGIGFGPFIITNKHLFRRNNGTLVVQSLHGVFKVKDTTTLQQHLVDGRDMIIIRMPKDFPPFPQKLKFREPQREERICLVTTNFQTKSMSSMVSDTSCTFPSGDGIFWGHWIQTKDGQCGSPLVSTRDGFIVGIHSASNFTNTNNYFTSVPKNFMELLTNQEAQQWVSGWRLNADSVLWGGHKVFMVKPEEPFQPVKEATQL [K142G]	0.0674	0.0687	0.0578	0.0671	0.0479	0.0733	0.111	0.0672	0.0651	0.0617	0.0666	0.062	0.061	–	0.0707	0.0915	0.0608	–	0.0576
MGESLFKGPRDYNPISSSICHLTNESDGHTTSLYGIGFGSFIITNKHLFRRNNGTLVVQSLHGVFKVKDTTTLQQHLVDGRDMIIIRMPKDFPPFPQKLKFREPQREERICLVTTNFQTKSMSSMVSDTSCTFPSGDGIFWKHWIQTKDGQCGSPLVSTRDGFIVGIHSASNFTNTNNYFTSVPKNFMELLTNQEAQQWVSGWRLNADSVLWGGHKVFMVKPEEPFQPVKEATQL [P40S]	0.0751	–	0.0614	0.0689	0.0611	0.0449	0.112	0.0553	0.11	0.0646	0.066	0.0776	0.0636	0.065	0.0792	0.101	0.0923	0.0794	–
MGESLFKGPRDYNPILSSICHLTNESDGHTTSLYGIGFGPFIITNKHLFRRNNGTLVVQSLHGVFKVKDTTTLQQHLVDGRDMIIIRMPKDFPPFPQKLKFREPQREERICLVTTNFQTKSMSSMVSDTSCTFPSGDGIFWKHWIQTKDGQCGSPLVSTRDGFIVGIHSASNFTNTNNYFTSVPKNFMELLTNQEAQQWVSGWRLNADSVLWGGHKVFMVKPEEPFQPVKEATQL [S16L]	0.0723	0.113	0.0745	0.108	0.0789	0.0601	0.135	0.0462	0.078	0.0753	0.0774	0.0599	0.0564	–	–	0.112	0.0736	–	–
MGESLFKGPRDYNPISSSICHLTNESDGHTTSLYGIGFAPFIITNKHLFRRNNGTLVVQSLHGVFKVKDTTTLQQHLVDGRDMIIIRMPKDFPPFPQKLKFREPQREERICLVTTNFQTKSMSSMVSDTSCTFPSGDGIFWKHWIQTKDGQCGSPLVSTRDGFIVGIHSASNFTNTNNYFTSVPKNFMELLTNQEAQQWVSGWRLNADSVLWGGHKVFMVKPEEPFQPVKEATQL [G39A]	0.0612	–	0.0255	0.0521	0.0387	0.0469	0.041	–	0.0466	0.0386	–	0.0395	0.0303	0.0394	0.0548	0.0589	0.0471	0.0398	–
MGESLFKGPRDYNPISSSICHLTNESDGHTTSLYGIGFGPFIITNKHLFRRNNGTLVVQSLHGVFKVKDTTTLQQHLVDGRDMIIIRMPKDFPPFPQKLKFREPQREERICLVTTNFQTKSMSSMVSDTSCTFPSGDGIFWKHNIQTKDGQCGSPLVSTRDGFIVGIHSASNFTNTNNYFTSVPKNFMELLTNQEAQQWVSGWRLNADSVLWGGHKVFMVKPEEPFQPVKEATQL [W144N]	0.0761	–	0.0629	0.0678	0.0672	0.0591	0.0985	0.0645	0.0719	0.0634	0.0617	–	0.0619	0.0708	0.0812	0.0851	–	0.0623	0.0473
MGESLFKGPRDYNPISSSICHLTNESDGHTTSLYGIGFGDFIITNKHLFRRNNGTLVVQSLHGVFKVKDTTTLQQHLVDGRDMIIIRMPKDFPPFPQKLKFREPQREERICLVTTNFQTKSMSSMVSDTSCTFPSGDGIFWKHWIQTKDGQCGSPLVSTRDGFIVGIHSASNFTNTNNYFTSVPKNFMELLTNQEAQQWVSGWRLNADSVLWGGHKVFMVKPEEPFQPVKEATQL [P40D]	0.0767	0.0879	0.0549	0.0548	0.0582	0.0796	0.117	0.0518	–	0.0698	–	–	0.0563	0.0853	0.0815	0.133	–	0.0887	–
MGESLFKGPRDYNPISSSICHLTNESDGHTTSLYGIGFGPFIITNKHLFRRNNGTLVVQSLHGVFKVKDTTTLQQHLVDGRDMIIIRMPKDFPPFPQKLKFREPQREERICHVTTNFQTKSMSSMVSDTSCTFPSGDGIFWKHWIQTKDGQCGSPLVSTRDGFIVGIHSASNFTNTNNYFTSVPKNFMELLTNQEAQQWVSGWRLNADSVLWGGHKVFMVKPEEPFQPVKEATQL [L112H]	0.0623	0.064	0.056	0.0615	–	0.0954	0.0876	0.0636	0.0542	0.0591	0.0598	–	0.0641	0.088	–	0.0701	0.0548	0.0683	0.0633
MGESLFKGPRDYNPISSSICHLTNESDGHTTSLYGIGFGPFIITNKHLFRRNNGTLVVQSLHGVFKVKDTTTLQQHLVDGRDMIIIRMPKDFPPFPQKLKFREPQREERICLVTTNFQTKSMSSMVSITSCTFPSGDGIFWKHWIQTKDGQCGSPLVSTRDGFIVGIHSASNFTNTNNYFTSVPKNFMELLTNQEAQQWVSGWRLNADSVLWGGHKVFMVKPEEPFQPVKEATQL [D128I]	0.0779	–	0.0911	0.0574	–	0.0896	0.127	0.0619	0.134	0.0705	0.083	0.1	0.0648	0.0782	–	0.144	0.122	0.096	–
MGESLFKGPRDYNPISSSICHLTNESDGHTTSLYGIGFGPFIITNKHLFRRNNGTLVVQSLHGVFKVKDTTTLQQHLVDGRDMIIIRMPKDFPPFPQKLKFREPQREERICLVTTNFQTKSMSSMVSDTSCTFPSGDGIFWKHWIQTKDGQCGSPLVSTRDGFIVGIHSASNFTNTNNYFTSVPKNFMELLTNQEAQQWVSGWRLNADSVLWGGHKVFMVKPEWPFQPVKEATQL [E224W]	0.0768	–	0.0267	0.0613	0.0628	0.0671	0.113	0.0588	0.0836	0.0689	0.0753	0.0638	0.0634	0.0672	0.0793	–	0.0748	0.0376	0.0633
MGESLFKGPRDYNPISSSICHLTNESDGHTTSLYGIGFGPFIITNKHLFRRNNGTLVVQSLHGVFKVKDTTTLQQHLVDGRDMIIIRMPKDFPPFLQKLKFREPQREERICLVTTNFQTKSMSSMVSDTSCTFPSGDGIFWKHWIQTKDGQCGSPLVSTRDGFIVGIHSASNFTNTNNYFTSVPKNFMELLTNQEAQQWVSGWRLNADSVLWGGHKVFMVKPEEPFQPVKEATQL [P96L]	0.0725	–	0.0494	–	–	0.0691	–	–	–	0.066	0.0632	–	–	–	–	–	–	0.0695	0.0716
